# Source: PubChem BioAssay AID2546 (National Center for Advancing Translational Sciences (NCATS), 2010)
# Among all 310,000 compounds or so, about 11,000 (3.5%) were called active. Inconclusive results, whose numbers are uncertain, are shown with a selection of clear calls. Calls follow the shape of the dose curve; as a rule, active = well fitted inhibition curve with a large enough effect; inconclusive = small, poorly fitted or top-dose-only effect, or effect the other way; inactive = flat fitted curve, though single readings scatter. No potency is given beside an inconclusive call; the fits are too rough.
# Assay: VP16 counterscreen qHTS for inhibitors of ROR gamma transcriptional activity;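 also: Gal4-VP16 expression switched on by copper sulfate through the metallothionein promoter; nearly all actives have a fitted effect of over 50% in size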
# Conditions: Drosophila S2 Gal4-VP16 UAS-luciferase, luminescence, 20 h; series mostly up to 53.6 µM
# Potency is read from the fitted curve at half-maximal effect; tags tell the direction and shape of the fitted curve.
row,Compound,Potency
1,COc1ccc(/C=C/C(=O)Nc2nc(C)c(C(=O)N(C)C)s2)cc1OC,"inconclusive [activator, single point]"
2,CC1CCN(c2ccc(S(=O)(=O)N3CCC(C)CC3)cc2N)CC1,"inconclusive [inhibitor, single point]"
3,COc1ccc(CCN2C(=O)CC(N3CCC(C(N)=O)CC3)C2=O)cc1OC (stereo not given),"inconclusive [inhibitor, single point]"
4,CCCCCCCCC/C(=N\O)c1ccccn1,active: 11.2 µM
5,Fc1ccc(N=C2NN=C(c3cc(F)ccc3F)CS2)cc1,"inconclusive [inhibitor, single point]"
6,O=C(N/N=C/c1ccccc1Cl)c1n[nH]c2c1CCCC2,"inconclusive [inhibitor, partial curve]"
7,Fc1ccc(NC(=S)NCc2ccccc2)cc1,active: 10 µM
8,CCc1c(C)nc2[nH]nc(-c3ccccc3C)n2c1=O,"inconclusive [inhibitor, single point]"
9,Cc1oc2ccccc2c1-c1cn2c(n1)SCC2,"inconclusive [activator, single point]"
10,O=C(Nc1nc2cc3c(cc2s1)OCCO3)c1ccc([N+](=O)[O-])o1,"inconclusive [inhibitor, partial curve, poor fit]"
11,COc1ccc(-c2cn3c(C)c(C(=O)N4CCc5ccccc5C4)sc3n2)cc1,inactive
12,CC(=O)N(c1ccc(C(F)(F)F)cc1)S(=O)(=O)c1ccc(N2C(=O)CCC2=O)cc1,"inconclusive [inhibitor, single point]"
13,CC[C@H](C)[C@H]1O[C@]2(CC[C@@H]1C)C[C@@H]1C[C@@H](C/C=C(\C)[C@H](O[C@@H]3C[C@H](OC)[C@H](O[C@@H]4C[C@H](OC)[C@@H](O)[C@H](C)O4)[C@H](C)O3)[C@@H](C)/C=C/C=C3\CO[C@@H]4[C@H](O)C(C)=C[C@@H](C(=O)O1)[C@]34O)O2,"inconclusive [inhibitor, single point]"
14,COc1ccc(CC(=O)Nc2ccc(N3CCCC3)c(C)c2)cc1,inactive
15,Cc1ccc(CCNC(=O)c2nnn(-c3cccc(C)c3)c2N)cc1,"inconclusive [inhibitor, partial curve]"
16,COc1ccc2c(c1)CCc1sc(NC(=O)c3ccc(C)cc3)nc1-2,active: 1 µM
17,COc1ccc(/C=C/C(=O)OCC(=O)Nc2cc3oc4ccccc4c3cc2OC)cc1,inactive
18,Cc1ccc(-c2csc3ncnc(-n4nnc5ccccc54)c23)cc1C,inactive
19,NNc1nc(-c2ccccc2)c2ccccc2n1,"inconclusive [inhibitor, partial curve, poor fit]"
20,COCCCn1c(CCC(=O)O)ccc1-c1ccc(F)cc1,"inconclusive [activator, partial curve, poor fit]"
21,CCOc1ccc(NC(=O)c2ccc3c(=O)n(-c4ccc(OC)cc4OC)c(=S)[nH]c3c2)cc1,active: 15.8 µM
22,Cc1ccc(C(=O)O/N=C\c2ccc(N3CCOCC3)c([N+](=O)[O-])c2)cc1,inactive
23,CC(C)C1=NN(C(=O)c2ccccc2)C(O)(C(C)(C)C)C1 (stereo not given),"inconclusive [inhibitor, single point]"
24,CCOc1ccc(C(Nc2cccnc2)c2cc(Cl)c3cccnc3c2O)cc1 (stereo not given),"inconclusive [inhibitor, full curve]"
25,CC(=O)Nc1ccc(/C=C/C(=O)c2ccccc2)cc1,"inconclusive [inhibitor, single point]"

row,Compound,Potency
1,CC(=O)NC(c1cccc([N+](=O)[O-])c1)c1ccc2cccnc2c1O (stereo not given),active: 2 µM
2,COc1cccc(CNn2cnnc2)c1OCc1ccccc1F,inactive
3,Cc1cccc(N2CCN(C(=O)COc3cccc4c3OC(C)(C)C4)CC2)c1C,active: 3.16 µM
4,O=C(NN=C1CCCC1)c1cccs1,"inconclusive [activator, partial curve]"
5,O=C(Nc1ccc([N+](=O)[O-])cc1)C(=O)Nc1cccc(C(=O)O)c1,active: 1 µM
6,Cn1cccc1/C=N/n1c(-c2ccccc2)n[nH]c1=S,"inconclusive [inhibitor, single point]"
7,Cc1ccc(S(=O)(=O)Nc2ccccc2CNc2ccc(Br)cn2)cc1,"inconclusive [inhibitor, single point]"
8,COc1ccc(/C=C/C(=O)Oc2cc(O)cc(O)c2)cc1,"inconclusive [inhibitor, single point]"
9,O=C(NCCc1cscn1)C1CCC(=O)N(Cc2ccc(Cl)cc2)C1 (stereo not given),"inconclusive [inhibitor, single point]"
10,O=C(NCCn1cc(SCc2ccccc2F)c2ccccc21)c1c(F)cccc1F,"inconclusive [inhibitor, single point]"
11,CCOC(=O)c1sc(=S)n(-c2cc(F)ccc2F)c1N,inactive
12,CCc1cc(C(=O)N/N=C/c2ccc(O)cc2O)c2ccccc2n1,"inconclusive [inhibitor, single point]"
13,Cc1ccc(C2NC(=S)NC3=C2N2CCC3CC2)cc1 (stereo not given),"inconclusive [inhibitor, single point]"
14,O=C(Oc1cccc2cccnc12)c1cccc([N+](=O)[O-])c1,active: 3.16 µM
15,COc1ccccc1CNC(=S)Nc1cc(C)ccc1C,"inconclusive [inhibitor, single point]"
16,Cc1c(C(=O)N2CCCCC2)oc2ccc(S(=O)(=O)N3CC(C)CC(C)C3)cc12 (stereo not given),"inconclusive [inhibitor, single point]"
17,Oc1ccc2ccccc2c1C=Nc1ccccc1-c1nc2ccccc2[nH]1,"inconclusive [inhibitor, single point]"
18,CCc1[nH]c(=S)c(C#N)c2c1CCCC2,"inconclusive [inhibitor, single point]"
19,O=C(O)C1CC(=O)N(c2ccc(OCc3c(F)cccc3Cl)cc2)C1 (stereo not given),"inconclusive [inhibitor, single point]"
20,Cc1ccc(NC(=O)COC(=O)Cc2ccsc2)cc1S(=O)(=O)N(C)C,inactive
21,Cc1ccc(S(=O)(=O)N2CCCCC2)cc1C(=O)N(C)CCOc1ccccc1,inactive
22,Cc1cc(C(=O)N2CCCC(C(=O)c3ccc4ccccc4c3)C2)nn1C (stereo not given),inactive
23,CCOc1ccccc1Nc1nc(-c2sc(C)nc2C)cs1,"inconclusive [activator, single point]"
24,CCCNC(=O)c1ccc2c(c1)nc(C)n2-c1cccc(C)c1,inactive
25,Cn1c(C(=O)OC(C(=O)NCc2ccco2)c2ccncc2)cc2sccc21 (stereo not given),inactive

row,Compound,Potency
1,O=c1[nH]c(C2CCN(S(=O)(=O)c3ccccc3)CC2)nc2c1nnn2Cc1ccccc1,inactive
2,O=C(N/N=C\C=C\c1ccc2c(c1)OCO2)c1cccnc1,active: 11.2 µM
3,O=C1C(C=Nc2ccccc2O)=C(O)c2ccccc21,active: 7.08 µM
4,CCCc1ccc(Oc2cn[nH]c2-c2ccc(O)c(C)c2O)cc1,"inconclusive [inhibitor, single point]"
5,C/C=C1\COC(C(=O)NC)(C(F)(F)F)C=C1C=C1CCCCC1 (stereo not given),"inconclusive [inhibitor, single point]"
6,COCC(C)n1c(C)cc(C(=O)COC(=O)c2n[nH]c3ccccc23)c1C (stereo not given),inactive
7,O=C(CSc1nnc(SCc2ccc(Cl)cc2)s1)N/N=C/c1ccccc1C(=O)O,inactive
8,Brc1ccc(-c2cn3ccccc3n2)cc1,inactive
9,Cc1oc2ccc(NS(=O)(=O)c3cccc4cccnc34)cc2c1C(=O)OC(C)C,inactive
10,O=C(c1ccc2[nH]c(=O)c(=O)[nH]c2c1)N1CCc2ccccc2C1,inactive
11,Cc1cc(C(F)(F)F)nn1Cc1n[nH]c(=S)n1-c1cccc(Cl)c1,"inconclusive [inhibitor, single point]"
12,O=[N+]([O-])c1ccccc1S(=O)(=O)NC1CCCCCCC1,inactive
13,Cc1cc(C)c2nc(C(F)(F)F)c(C#N)c(N)c2c1,inactive
14,COc1ccc(Cn2c(S(=O)(=O)CC(N)=O)nc3ccccc32)cc1[N+](=O)[O-],inactive
15,COc1cccc(OCCNC(=O)CSc2ccc(C(F)(F)F)cc2[N+](=O)[O-])c1,active: 3.55 µM
16,COc1cc2ccccc2cc1C(=O)NC(=S)Nc1cc(C(=O)O)ccc1C,inactive
17,Cc1cc2nc(SCCOC(=O)Nc3ccc(Cl)cc3)nc(C)c2cc1C,"inconclusive [inhibitor, full curve]"
18,CCOC(=O)/C=C1\CN(Cc2cc(OC)c(OC)c(OC)c2)S(=O)(=O)c2ccc(C(F)(F)F)cc21,"inconclusive [inhibitor, single point]"
19,COc1cccc(C(=O)NC2CCN(CC(=O)Nc3cccc(C)c3C)CC2)c1,"inconclusive [inhibitor, single point]"
20,Cc1cccnc1NC(=S)NCc1ccco1,"inconclusive [inhibitor, single point]"
21,Cc1cc(N/N=C/c2ccccc2O)nc(-c2ccccc2O)n1,"inconclusive [inhibitor, partial curve]"
22,CCCCCCc1cc2cc(C(=O)Nc3ccc(OC)cc3)c(=O)oc2cc1O,inactive
23,NC(=O)c1ccc[n+](CCC[n+]2cccc(C(N)=O)c2)c1,inactive
24,COc1ccccc1N1CCN(C(=O)c2ccc(CS(=O)(=O)c3ccccc3OC)o2)CC1,inactive
25,O=C(Nc1nnc(S(=O)(=O)N2CCCCCC2)s1)c1ccccc1F,"inconclusive [inhibitor, full curve]"
